Among all 310,000 compounds or so, about 14,000 (4.5%) showed an effect of 50% or more. Effects have a minus sign here. The list shows a part of the results.
Target: human ether-à-go-go-related gene (hERG) potassium channel (human, UniProt Q12809)
Assay: primary screen, population patch clamp on CHO cells stably expressing hERG
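Note: peak tail current of the secondary pulse compared with the same well before compound.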

human ether-à-go-go-related gene (hERG) potassium channel, sequence (Q12809 whole entry, looked up): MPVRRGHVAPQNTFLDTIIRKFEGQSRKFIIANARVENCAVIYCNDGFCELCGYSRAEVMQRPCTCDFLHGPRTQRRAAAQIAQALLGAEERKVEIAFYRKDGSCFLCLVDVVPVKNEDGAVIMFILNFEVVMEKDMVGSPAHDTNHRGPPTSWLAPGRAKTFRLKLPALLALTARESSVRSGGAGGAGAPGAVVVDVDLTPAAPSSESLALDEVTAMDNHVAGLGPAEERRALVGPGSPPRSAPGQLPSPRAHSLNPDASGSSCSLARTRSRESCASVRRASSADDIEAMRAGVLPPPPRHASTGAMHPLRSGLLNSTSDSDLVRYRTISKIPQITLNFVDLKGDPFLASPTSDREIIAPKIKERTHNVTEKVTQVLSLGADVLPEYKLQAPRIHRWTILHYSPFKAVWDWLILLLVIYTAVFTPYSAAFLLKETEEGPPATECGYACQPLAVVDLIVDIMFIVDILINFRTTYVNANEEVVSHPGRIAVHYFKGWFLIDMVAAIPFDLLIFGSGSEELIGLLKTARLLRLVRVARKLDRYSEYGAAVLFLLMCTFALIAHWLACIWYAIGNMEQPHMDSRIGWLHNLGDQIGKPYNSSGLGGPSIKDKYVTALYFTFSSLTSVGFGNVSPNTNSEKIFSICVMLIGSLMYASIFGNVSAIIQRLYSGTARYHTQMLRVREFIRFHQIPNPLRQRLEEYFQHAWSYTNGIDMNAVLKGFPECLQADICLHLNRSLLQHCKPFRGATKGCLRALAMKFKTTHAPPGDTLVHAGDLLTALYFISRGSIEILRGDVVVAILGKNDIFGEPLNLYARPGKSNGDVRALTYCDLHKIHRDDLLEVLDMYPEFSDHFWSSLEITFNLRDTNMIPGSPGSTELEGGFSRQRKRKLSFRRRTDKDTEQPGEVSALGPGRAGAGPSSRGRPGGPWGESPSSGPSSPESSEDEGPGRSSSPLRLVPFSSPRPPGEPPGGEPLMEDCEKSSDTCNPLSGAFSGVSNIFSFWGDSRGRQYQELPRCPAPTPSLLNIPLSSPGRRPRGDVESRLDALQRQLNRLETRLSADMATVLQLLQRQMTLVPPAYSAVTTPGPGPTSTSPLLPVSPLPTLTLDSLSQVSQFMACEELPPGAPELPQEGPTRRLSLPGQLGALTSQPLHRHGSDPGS

| Compound | hERG current change (%, negative = inhibition) at 10uM |
| --- | --- |
| COc1ccccc1CNC(=O)c1c(-c2ccccc2)nn(-c2ccccc2)c1C | -23.1% |
| COc1cccc(-n2ccnc2SCC(=O)Nc2ccccc2)c1 | -5.46% |
| Cc1cc(N2CCN(c3ccccc3)CC2)nc(NCc2ccccc2)n1 | 4.25% |
| CCN1C(=O)C(CC(=O)N2CCN(C(c3ccccc3)c3ccccc3)CC2)N(CC)C1=O (centres unmarked) | 1.18% |
| Cc1cccc(C(=O)Nc2nnc(SCC(=O)NC3CC3)s2)c1 | 8.55% |
| O=C1CCCN1CCCNc1nc2c(S(=O)(=O)c3ccccc3)nnn2c2ccc(Cl)cc12 | -25.4% |
| COc1ccc(C=O)cc1COc1c(F)c(F)cc(F)c1F | -15.7% |
| O=C(NCCCn1ccnc1)C1CC2CCC1C2 (centres unmarked) | 0.144% |
| CCC1CCCCN1C(=S)Nc1ccc(SC(F)F)cc1 (centres unmarked) | -30% |
| O=C(CN1CCN(S(=O)(=O)c2ccc(F)c(F)c2)CC1)Nc1ccccc1C(=O)NC1CC1 | -72.3% |
| CCOC(=O)c1ccc(NC(=O)N2CCN(Cc3cccc(F)c3)CC2)cc1 | -9.28% |
| CC(C)CN(C(=O)Cn1nnc(-c2ccc(F)cc2)n1)C1CCS(=O)(=O)C1 (centres unmarked) | 6.95% |
| CCNC(=S)N(CCc1c(C)[nH]c2ccccc12)Cc1cc(OC)c(OC)c(OC)c1 | -3.86% |
| CCCC(=O)Nc1nnc(SCC(=O)NCc2ccco2)s1 | 0.447% |
| Cc1ccc2occ(-c3nn[nH]n3)c(=O)c2c1 | 11.4% |
| Cc1cccc(C(=O)NCC(=O)NC2CCN(Cc3ccccc3)CC2)c1 | -7.99% |
| CCOc1ccc2[nH]c(=O)c(CN(Cc3nnnn3Cc3ccco3)C3CCCCC3)cc2c1 | 5.58% |
| Cc1cc(C)n(-c2ccc3nnc(C)n3n2)n1 | 10.5% |
| O=C(COC(=O)c1ccc(F)cc1F)NC(=O)Nc1ccc2c(c1)OCCO2 | 1.4% |

| Compound | hERG current change (%, negative = inhibition) at 10uM |
| --- | --- |
| Cc1cc(C)c2cccc(NC(=S)NC(=O)c3ccccc3)c2n1 | -14.5% |
| Cc1ccc(/C([O-])=C(/C(=S)NCc2ccc3c(c2)OCO3)[n+]2ccc(N(C)C)cc2)c(C)c1 | -9.09% |
| Cc1cccc(C)c1Nc1nnc(SCc2cn3cccc(C)c3n2)s1 | -43.1% |
| COC(=O)CSc1nnc(CNc2ccc(F)cc2)o1 | 14.5% |
| CC(C)CC(=O)C1=C(O)C(=O)N(Cc2ccccc2)C1c1ccccc1 (centres unmarked) | 14.5% |
| COCCNC(=O)/C(C#N)=C/c1ccc(-c2ccc(S(=O)(=O)N3CCOCC3)cc2)o1 | -33.2% |
| O=[N+]([O-])c1ccc(-c2nnc(-c3ccccc3)c(NCCCO)n2)cc1 | -67.3% |
| Cc1ccc(Cn2cccc(-c3nc4ccccc4s3)c2=O)cc1 | 11.2% |
| Br.N=C1c2ccccc2CN1NC(=O)c1ccc(Cl)cc1 | 1.22% |
| CC(Oc1ccc(Cl)cc1Cl)C(=O)NC1CCSC1=O (centres unmarked) | -17.3% |
| Cc1noc(C)c1CC(=O)NC1CC(C)(C)Cc2c1cnn2-c1ccccc1 (centres unmarked) | 6.7% |
| CCOC(=O)N1CCC(N2CCN(S(=O)(=O)CC)CC2)CC1.O=C(O)C(=O)O | -1.19% |
| Cc1ccc(CN2CCN(/N=C/c3ccc(C)s3)CC2)c(C)c1 | -5.96% |
| CCc1noc(C)c1C(=O)NCCc1ccc(S(N)(=O)=O)cc1 | 6.85% |
| C=CCn1c(CSCc2ccc(F)cc2)n[nH]c1=S | 11.6% |
| O=C(Nc1ccccc1C(=O)Nc1ccccn1)c1ccc([N+](=O)[O-])cc1 | -18% |
| CN(C)Cc1cc(C(C)(C)c2cc(CN(C)C)c(O)c(CN(C)C)c2)cc(CN(C)C)c1O | -1.21% |
| CC(=O)OC1CC2(C)/C(=N\O)CCC2C2CCc3cc(O)ccc3C12.CCO (centres unmarked) | -5.1% |
| COc1ccc(N2CCN(C(=O)CSc3nnc4c(C)cc5cc(C)ccc5n34)CC2)cc1 | -21.2% |

| Compound | hERG current change (%, negative = inhibition) at 10uM |
| --- | --- |
| COc1ccc(-c2nc(C)ncc2-c2csc(C)n2)c(O)c1 | 11% |
| CC(C)Cc1nc2oc3c(Cl)ncnc3c2c2c1CCC2 | -3.91% |
| CCOC(=O)c1c(C)[nH]c(C(=O)COC(=O)/C=C/c2ccc(O)c(OC)c2)c1C | 2.87% |
| O=C(NCc1ccc2c(c1)OCO2)C1CC(c2ccc(Cl)c(Cl)c2)=NO1 (centres unmarked) | 15% |
| Cc1cccc(NS(=O)(=O)c2ccc(C(=O)NCCCN3CCCC3=O)cc2)c1C | 4.04% |
| O=C(CCC1CCCN(C(=O)Cn2cnnn2)C1)NCc1ccc(F)c(F)c1 (centres unmarked) | 3.81% |
| CC(C)c1nnc(NC(=O)C2CCCN2C(=O)Nc2ccccc2F)s1 (centres unmarked) | -19.4% |
| CCOC(=O)Cc1cc(=O)[nH]c(=O)[nH]1 | 20.2% |
| CCOc1ccccc1C1C(C(N)=O)=C(C)Nc2nc(-c3cccc(C)c3)nn21 (centres unmarked) | 3.39% |
| Cc1cccc(CSCCNC(=O)Nc2ccccc2)c1 | -1.65% |
| Cc1nnc(NC(=O)c2ccccc2-c2ccccc2C(=O)O)s1 | 24.8% |
| Cc1ccc(NC(=O)C2CC(=O)N(Cc3ccccc3)C2)cc1S(=O)(=O)N1CCCCCC1 (centres unmarked) | -20.6% |
| O=C(CN1C(=O)NC(Cc2ccccc2)C1=O)Nc1ccccc1OC(F)F (centres unmarked) | -5.53% |
| Cn1c(C(=O)N2CCCc3ccccc32)cc2c(=O)n3ccccc3nc21 | -8.76% |
| Cc1cc(/C=C2\SC(N)=NC2=O)c(C)n1-c1ccccc1 | 7.5% |
| CCOc1cc(-n2cnnn2)c(OCC)cc1NC(=O)c1cnccn1 | 3.01% |
| Nc1nc2ccc(C(=O)N3CCCCC3)cc2s1 | 0.471% |
| COc1ccc(N2CCN(C(=O)CN3C(=O)c4ccccc4S3(=O)=O)CC2)cc1 | 15.4% |
